In all, about 110,000 compounds were measured (“z-score”: median about -0.1, highest 2% from about 2 on). The list shows a part of the results. The source made the active and inactive calls.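 How the source made its calls: active means z-score in the third read window above 3 or below -3; inactive means the rest.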
Each compound was assayed against Metabotropic glutamate receptor 8 (Rattus norvegicus) (UniProt P70579) (assay: rat mGluR8 modulators via GIRK flux, primary screen, cell-based, thallium flux, HTS (AID 488969)). Settings: HEK293 rat mGluR8, GIRK (G protein-gated inwardly rectifying potassium channel) thallium flux, FluoZin2; at 10 µM; stronger effect = higher value; submaximal glutamate (EC20) added with thallium.
Sequence of UniProt P70579 (P70579 whole entry, looked up): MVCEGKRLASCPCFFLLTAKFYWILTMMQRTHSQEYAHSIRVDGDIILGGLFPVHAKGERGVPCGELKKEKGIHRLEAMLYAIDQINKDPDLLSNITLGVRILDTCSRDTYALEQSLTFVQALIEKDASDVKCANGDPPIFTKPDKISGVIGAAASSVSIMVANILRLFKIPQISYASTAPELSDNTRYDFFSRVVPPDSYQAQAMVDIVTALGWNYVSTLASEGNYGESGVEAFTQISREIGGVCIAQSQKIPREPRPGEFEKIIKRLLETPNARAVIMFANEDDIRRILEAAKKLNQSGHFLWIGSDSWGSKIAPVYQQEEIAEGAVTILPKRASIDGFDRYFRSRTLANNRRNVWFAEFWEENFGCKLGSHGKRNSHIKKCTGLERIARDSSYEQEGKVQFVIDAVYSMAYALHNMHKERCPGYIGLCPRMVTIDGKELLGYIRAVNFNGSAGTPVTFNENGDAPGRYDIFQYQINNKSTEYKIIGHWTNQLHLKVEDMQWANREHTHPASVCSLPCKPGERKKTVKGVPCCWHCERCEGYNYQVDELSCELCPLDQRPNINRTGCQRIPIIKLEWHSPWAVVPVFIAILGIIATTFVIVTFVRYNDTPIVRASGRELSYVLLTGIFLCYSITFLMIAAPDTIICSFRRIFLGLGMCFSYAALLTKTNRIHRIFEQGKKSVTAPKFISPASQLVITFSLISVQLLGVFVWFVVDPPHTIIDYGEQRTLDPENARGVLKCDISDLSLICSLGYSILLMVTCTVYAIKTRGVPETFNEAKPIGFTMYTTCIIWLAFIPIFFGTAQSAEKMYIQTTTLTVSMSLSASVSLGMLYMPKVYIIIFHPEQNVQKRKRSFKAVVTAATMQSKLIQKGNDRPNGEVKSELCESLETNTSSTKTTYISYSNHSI

Structure (SMILES) | z-score
Cc1ccc(-n2c(N)c(-c3nc4ccccc4n3C)sc2=S)cc1 | 0.836
N=C1/C(=C/c2cccs2)C(=O)N=C2SN=C(SCc3ccccc3)N12 | active: 9.53
COc1cc(NC(=O)Cn2c(-c3cncs3)nc3ccccc32)cc(OC)c1OC | 0.295
Cc1ccccc1NC(=S)C1=C(O)c2sccc2N(C)S1(=O)=O | -0.144
Cc1nn2c(N3CCN(c4ccccn4)CC3)cc(C(C)C)nc2c1-c1ccccc1 | -0.604
Cc1ccc(-c2ccc(=O)n(CC(=O)N3CCN(c4cc(Cl)ccc4C)CC3)n2)cc1 | -0.335
O=C(Nc1ccc2nc(-c3ccccc3)[nH]c2c1)c1ccco1 | -0.245
CCN(CC)C(=O)CSc1nc2ccccc2c(=O)[nH]1 | 0.0717
CC(C)NC(=O)C12CC3CC(C1)CC(n1cnc(Cl)n1)(C3)C2 | -0.0733
CCOC(=O)c1[nH]c(C)c(C(=O)NC2CCCCCC2)c1C | 0.781
CCOc1ccc(NS(=O)(=O)c2ccc(NS(=O)(=O)c3ccc(SC)cc3)cc2)cc1 | -0.428
O=C1NCCCC1C(=O)NCCN1C(=O)CCC1=O (stereo not given) | -0.0595
CCC(=O)Oc1ccc2c(C)c(Cl)c(=O)oc2c1 | 0.414
COc1cccc(C(=O)/C=C/Nc2ccc(S(=O)(=O)Nc3cccc(C(C)=O)c3)cc2)c1 | -0.0714
COc1ccc(/C=N/NC(=O)C(=O)NCC2CCCO2)cc1 (stereo not given) | -0.0895
CCOC(=O)c1cc(CC)sc1NC(=O)c1ccc(N2CCOCC2)c([N+](=O)[O-])c1 | 1.03
O=CN(Cc1ccco1)C1(C(=O)NC2CCCCC2)CCCCC1 | 0.612
CSc1nncc(=O)[nH]1 | -0.0695
COC(=O)c1cnn2c(C(F)(F)F)cc(-c3ccccc3)nc12 | -0.00832
CC(C)C1Oc2ccccc2N(CC(=O)N(Cc2ccncc2)Cc2ccco2)C1=O (stereo not given) | -1.21
COc1cc(/C=C2/SC(=S)N(CC(=O)NC(C)(C)C)C2=O)cc(OC)c1OC | -0.148
N#Cc1ccc(C(=O)Nc2cc(S(=O)(=O)Nc3ccc(Cl)cc3)ccc2N2CCCCC2)cc1 | -0.309

Structure (SMILES) | z-score
COC(=O)c1ccccc1Oc1nc(Cl)cc(OC)n1 | -0.22
O=C(COc1ccccc1)Nc1ccc2c(c1)nc1n2CCSC1 | 0.442
COc1ccc(C2=NN(CC(=O)NCc3ccco3)C(=O)CC2)cc1 | 0.0232
O=C(COC(=O)CCc1ccccc1)NC(c1ccccc1)c1ccccc1 | 0.0993
CCN(CC)S(=O)(=O)c1ccc(C(=O)N2CCN=C2SCc2cccnc2)cc1 | 0.0527
Cc1ccsc1C(=O)Nc1ccccc1N1CCOCC1 | -0.204
COc1ccc(/C=N/NC(=O)c2cc(-c3ccccc3OC)nc3ccccc23)cc1COC(C)=O | -0.25
Cc1ccc(S(=O)(=O)NC(C)C(c2cccs2)N2CCN(c3ccccc3)CC2)cc1 (stereo not given) | -0.115
CCOC(=O)C1CCN(CC(=O)c2c(C)[nH]c3ccccc23)CC1 | 0.0528
Cc1cc(C)cc(Oc2coc3cc(OC(=O)c4cccs4)ccc3c2=O)c1 | -0.0527
CN(C)c1cccc(NC(=O)CCc2ccccc2)c1 | -0.123
Cc1cccc(N2CCN(C(=O)c3cnn4c(C(F)F)cc(-c5ccccc5)nc34)CC2)c1C | -0.067
Cc1ccc(/C=N/NC(=O)CSCc2ccc(Cl)cc2)cc1 | 0.781
O=C1CC(c2ccccc2)n2nc(NS(=O)(=O)c3ccccc3)nc2N1 (stereo not given) | -0.413
CCOc1ccc(C(=O)Nc2cc(OC)ccc2OC)cc1 | -0.319
O=C(NCCO)/C(=C\c1cccs1)NC(=O)c1cccs1 | -0.122
COC(=O)c1c(N)sc(C(=O)N2CCOCC2)c1C | 0.428
c1ccc2[nH]c(CSc3nc4ccccc4o3)nc2c1 | 0.29
O=C(c1ccc(Cl)c(S(=O)(=O)N2CCCCCC2)c1)N1CCN(c2ccccn2)CC1 | -0.577
Cc1csc(NC(=O)CSc2nnc(NC(=O)COc3ccc(Cl)cc3)s2)n1 | -0.254
Cc1cc(NC(=O)CSC2=Nc3ccccc3C3=NC(Cc4ccccc4)C(=O)N23)n[nH]1 (stereo not given) | -0.232
Cc1ccccc1NC(=S)N(CCCN1CCC(C)CC1)Cc1ccco1 | -0.543

Structure (SMILES) | z-score
CC1(C)OC(=O)C(=CNC(CCC(N)=O)C(=O)O)C(=O)O1 (stereo not given) | -0.00703
COc1ccc2c(c1)C(=NNC(=O)c1ccccn1)c1cc(OC)ccc1-2 | 0.188
O=[N+]([O-])c1cccc(-c2nnc3ccc4ccccc4n23)c1 | -0.335
CC1(C)CC(=O)C2=C(C1)NCN(Cc1ccccc1)C2 | 0.0758
CCOC(=O)C1=C(C)C(c2ccccc2OC)NC(=S)N1 (stereo not given) | 0.345
Cn1c(=O)c2c(nc(OCC3COC(C)(C)O3)n2Cc2ccccc2F)n(C)c1=O (stereo not given) | -0.158
COC(=O)c1cnn(-c2cc(Oc3cccc(C)c3)ncn2)c1N | 0.309
N#Cc1ncc(-c2ccc3c(c2)OCCOCCOCCOCCO3)nc1C#N | 0.113
COc1ccc(-c2nc(CCNC(=O)c3ccc(Br)o3)cs2)cc1 | -0.301
c1cncc(-c2nc(N3CCOCC3)c3ccccc3n2)c1 | 0.113
O=C(NCCC1=CCCCC1)C1CCN(S(=O)(=O)c2ccc(-n3cnnn3)cc2)CC1 | 0.197
c1ccc2[nH]c(CSc3nc4ccccc4s3)nc2c1 | -0.134
COc1nc(N/N=C/c2ccc(-c3cccc([N+](=O)[O-])c3)o2)nc(N2CCOCC2)n1 | -0.387
CCOC(=O)N1CCC(O)(c2cc(C)c(C)cc2C)CC1 | -0.0446
CSc1ccccc1C(=O)NC1CCCCC1 | 0.226
C=CCOC(=O)C1=C(C)NC(=O)NC1/C=C/c1ccccc1 (stereo not given) | -0.0496
COc1ccc(C2CC(=O)c3c(C)nc(N4CCN(c5ccccc5)CC4)nc3C2)cc1 (stereo not given) | -0.418
OC(CNCCc1ccccc1)c1ccccc1 (stereo not given) | 0.907
COc1cc2nc(NC(=O)c3ccc(Cl)cc3)[nH]c(=O)c2cc1OC | -0.173
O=C(c1cnsn1)N1CCN(c2ccccn2)CC1 | -0.358
CCCCCCOc1ccc(-c2ccc(C#N)cn2)cc1 | 0.14
O=C(Cc1ccccc1)N/N=C/c1ccccc1Cl | -0.243

Structure (SMILES) | z-score
Fc1ccc(NC(=S)NCCc2ccc(Cl)cc2)cc1 | 0.219
COc1ccc2c(c1)c(C(=O)CN1CCC3(CC1)OCCO3)c(C)n2C | 0.936
Cc1noc(N)c1C(=O)Nc1ccc(F)c(Cl)c1 | 0.87
CCn1c(-c2cccc(Br)c2)n[nH]c1=S | 2.35
O=C(Nc1ccc2c(c1)OCCO2)c1c(F)c(F)c(F)c(F)c1F | 0.672
CCOC(=O)COn1c(=O)c(-c2cc3ccccc3o2)[n+]([O-])c2ccccc21 | -0.101
O=C(NCc1ccco1)c1sc2cccc(F)c2c1Cl | -0.653
CCOC(=O)COc1cccc2c(=O)n(CC(=O)N3CCc4ccccc43)ccc12 | -0.265
Cc1ccc2c(c1)N(CC(=O)N(Cc1ccccn1)Cc1ccco1)C(=O)C(C(C)C)O2 (stereo not given) | active: -3.18
CCCCOC(=O)CSc1n[nH]c(=O)[nH]c1=O | -0.957
CCn1c(=O)c(C(=O)CN(C)Cc2cccc(OC)c2OC)c(N)n(Cc2ccccc2)c1=O | 0.608
O=C(O)CCN(CCC(=O)O)c1nnc(SCc2ccccc2)s1 | 0.676
COC(=O)c1c(-c2ccc3ccccc3c2)csc1NC(=O)Cc1ccc(OC)c(OC)c1 | 0.271
CC(C)n1c(NCc2c[nH]c3ccccc23)nc2ccccc21 | -1.28
Cc1nc(SCC(=O)Nc2ccccc2C(F)(F)F)c(C#N)c(C)c1CC(=O)c1ccc(Br)cc1 | -0.15
CCCCCCn1c(SCC(=O)c2ccccc2)nc2c1c(=O)[nH]c(=O)n2C | 1.35
CN(Cc1ccccc1)c1oc(COc2ccccc2F)nc1C#N | -0.124
O=[N+]([O-])c1nn(-c2cccc(Cl)c2)n(O)c1=NCc1cccnc1 | -0.0198
COc1ccc(CCC(=O)N2c3ccccc3CC2C)cc1 (stereo not given) | -0.45
CC(C)(C)C(=O)NC(=S)Nc1ccccc1C(=O)Nc1ccccc1 | -0.079
NC(Cc1ccc2nonc2c1)C(=O)O (stereo not given) | 0.371
CC(Sc1nnc(CNc2cccc3ccccc23)n1-c1ccccc1)C(=O)N/N=C/c1ccco1 (stereo not given) | -0.17

Structure (SMILES) | z-score
CSc1nnc2c(n1)OC(c1ccc(C(=O)O)cc1)N(C(C)=O)c1ccccc1-2 (stereo not given) | 0.0372
Cc1cc(=O)n2c(nc3ccccc32)[nH]1 | -0.0225
c1ccc(-n2nnnc2NC2CCCCCC2)cc1 | 0.167
CCOC(=O)c1[nH]c2cc(OC)c(OC)cc2c1NC(=O)c1nonc1C | 0.176
COC(=O)c1c(NC(=O)C2COc3ccccc3O2)sc2c1CCN(Cc1ccccc1)C2 (stereo not given) | 0.0786
O=c1c2cc(Cl)ccc2[nH]c(=S)n1Cc1ccco1 | active: 16.1
O=C(CCN1C(=O)C2C3C=CC(C3)C2C1=O)Nc1ccc2c(c1)OCO2 (stereo not given) | 0.244
COc1ccc(S(=O)(=O)Nc2ccc(O)c3ccccc23)cc1 | 0.394
O=C(c1cnn2ccccc12)N(Cc1ccco1)C1CCCC1 | -0.157
CC(=O)NCCCc1nc2ccccc2n1Cc1ccccc1C | -0.192
COc1ccc(NC2=CC(c3cccc(OC)c3)N(c3ccc(OC)cc3)C2=O)cc1 (stereo not given) | -0.196
NC(=O)C1CCN(C(=O)CSc2nc3ccccc3s2)CC1 | -0.237
Cc1ccccc1CS(=O)(=O)c1cn(CC(=O)N2CCC(C)CC2)c2ccccc12 | -0.0274
COCCn1c(-c2ccc(OC)cc2)nc2oc3cc(OC)ccc3c(=O)c2c1=O | -0.0423
OCCn1c(C(F)(F)F)nc2ccccc21 | -0.18
Cc1cccc(Nc2nc3c(S(=O)(=O)c4ccccc4)nnn3c3ccccc23)c1C | -0.185
CCN(c1cccc(C)c1)S(=O)(=O)c1cnc[nH]1 | 0.225
Clc1ccc(C(c2nnnn2C2CCCC2)N2CCN(Cc3ccncc3)CC2)cc1 (stereo not given) | -0.586
O=c1c(Cl)c(N2CCN(S(=O)(=O)c3ccc(F)cc3)CC2)cnn1-c1cccc(Cl)c1 | -0.169
COc1ccc(OCC(=O)Nc2nc3ccccc3[nH]2)cc1 | 0.58
Cc1cc(Nc2ccc(C)c(F)c2)n2ncnc2n1 | -0.265
O=C(CSc1nc(C2CCCCC2)n(-c2ccccc2)n1)NCC(F)(F)F | -0.201

Source: PubChem BioAssay AID488969 (Vanderbilt High Throughput Screening Facility, 2010)
